Test results as given in PubChem BioAssay AID504339 (National Center for Advancing Translational Sciences (NCATS), 2011).
About 17,000 (4.4%) of roughly 390,000 compounds were called active. Inconclusive means that the source gave no clear call. Such entries were picked first, then a sample of the others. Calls follow the shape of the dose curve; as a rule, active = well fitted inhibition curve with a large enough effect; inconclusive = small, poorly fitted or top-dose-only effect; inactive = no such curve, though single readings can be large or run the other way. Where the call is inconclusive, the potency comes from a doubtful curve fit.

The compounds below were run against Lysine-specific demethylase 4A (Homo sapiens) (UniProt O75164) (assay: qHTS Assay for Inhibitors of JMJD2A-Tudor Domain). Details: AlphaScreen JMJD2A-Tudor / H3K4me3 peptide binding; activity change, negative = inhibition: at 114 µM (top of the series).
% is scaled to controls: 0 for no effect and ±100 for the full control effect; potency is read from the fitted curve at half-maximal effect; tags tell the direction and shape of the fitted curve.
Also: nearly all actives have a fitted effect of over 50% in size.

Chain of UniProt O75164 (O75164 whole entry, looked up, the tested form may be a part): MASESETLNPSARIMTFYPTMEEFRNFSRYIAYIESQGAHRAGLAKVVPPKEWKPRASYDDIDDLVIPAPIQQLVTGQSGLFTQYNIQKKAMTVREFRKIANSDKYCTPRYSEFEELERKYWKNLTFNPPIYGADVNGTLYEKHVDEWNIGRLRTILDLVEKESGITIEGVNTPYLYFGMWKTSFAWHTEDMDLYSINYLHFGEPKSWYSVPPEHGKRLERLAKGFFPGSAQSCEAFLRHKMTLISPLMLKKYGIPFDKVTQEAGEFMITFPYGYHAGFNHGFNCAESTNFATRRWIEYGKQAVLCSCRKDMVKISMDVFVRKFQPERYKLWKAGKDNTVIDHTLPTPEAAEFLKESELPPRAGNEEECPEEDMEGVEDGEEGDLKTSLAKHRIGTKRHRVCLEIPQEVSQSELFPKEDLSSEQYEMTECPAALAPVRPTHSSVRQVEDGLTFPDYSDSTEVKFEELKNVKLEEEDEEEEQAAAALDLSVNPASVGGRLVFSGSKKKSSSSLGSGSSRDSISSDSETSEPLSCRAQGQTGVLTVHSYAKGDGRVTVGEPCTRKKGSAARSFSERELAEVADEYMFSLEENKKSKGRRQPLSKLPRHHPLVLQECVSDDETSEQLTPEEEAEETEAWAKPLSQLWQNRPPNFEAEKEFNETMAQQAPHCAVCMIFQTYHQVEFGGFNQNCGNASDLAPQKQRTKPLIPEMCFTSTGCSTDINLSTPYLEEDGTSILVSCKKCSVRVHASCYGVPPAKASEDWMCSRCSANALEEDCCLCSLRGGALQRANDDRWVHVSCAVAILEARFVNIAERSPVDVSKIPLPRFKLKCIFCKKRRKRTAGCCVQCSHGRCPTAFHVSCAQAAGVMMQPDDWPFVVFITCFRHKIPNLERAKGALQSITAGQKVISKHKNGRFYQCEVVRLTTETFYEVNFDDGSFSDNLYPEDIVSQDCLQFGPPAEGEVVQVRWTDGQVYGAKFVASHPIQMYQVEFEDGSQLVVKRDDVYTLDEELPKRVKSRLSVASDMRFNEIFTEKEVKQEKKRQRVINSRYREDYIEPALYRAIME

| SMILES | Potency | activity change, negative = inhibition |
| --- | --- | --- |
| Cc1cc(C)c2c(N)c(C(=O)NC3CCCC3)sc2n1 | inactive | – |
| Cc1cc(C)c(C(=O)N2CCCC(Nc3ccc(C)c(C)c3)C2)o1 (stereo unspecified) | inconclusive: 50.1 µM [inhibitor, partial curve] | – |
| COc1ccc([N+](=O)[O-])cc1-c1[nH]c(-c2ccc(C(=O)O)cc2)nc1-c1ccccc1 | inconclusive: 44.7 µM [inhibitor, partial curve] | – |
| COc1ccc(C2N(c3ccc(Cl)cc3)N=C(C(C)=O)N(C)N2C(C)=O)cc1 (stereo unspecified) | inconclusive: 44.7 µM [inhibitor, partial curve] | – |
| Cc1ccccc1NC(=O)/C(C#N)=C\c1cn(CC(=O)O)c2ccccc12 | inactive | – |
| CCCCN(CCCNC(=O)c1ccc(Sc2ccc(Cl)cc2)c(NC(C)=O)c1)c1ccccc1 | inconclusive: 8.91 µM [inhibitor, partial curve] | – |
| COc1ccc(N2CC(C(=O)Nc3nc4ccc(S(C)(=O)=O)cc4s3)CC2=O)cc1 (stereo unspecified) | inactive | – |
| CC(=O)n1c2ccccc2c2nc(NC(C)C)sc21 | active: 50.1 µM | – |
| CC(=O)c1cc(NC(=O)c2ccc(C)cc2)c(=O)oc1C | active: 20 µM | – |
| CCOc1ccccc1NC(=O)C1C2C=CC(O2)C1C(=O)O (stereo unspecified) | inactive | – |
| COCC(C)NCC(=O)NC(C)CCc1ccccc1 (stereo unspecified) | active: 1 µM | – |
| Cc1ncc(CSc2nnnn2-c2ccccc2)c(N)n1 | inactive | – |
| Cc1sc2nc(CN3CCN(c4ccc(O)cc4)CC3)[nH]c(=O)c2c1C | inconclusive: 17.8 µM [inhibitor, partial curve, poor fit] | – |
| CN(C)c1ccc(-c2nc3cnccn3c2Nc2cccc(C(F)(F)F)c2)cc1 | inactive | – |
| COc1cc(O)oc1C=Nc1ccc(Oc2ccccc2)cc1 | inconclusive: 89.1 µM [inhibitor, partial curve] | – |
| CC(Oc1ccc(Br)cc1)C(=O)Nc1cc(S(=O)(=O)N2CCOCC2)ccc1N1CCCC1 (stereo unspecified) | inactive | – |
| O=C(Cc1ccccc1)n1nc(-c2ccco2)nc1SCc1ccccc1 | active: 89.1 µM | – |
| Cc1ccc(S(=O)(=O)NCC(c2ccc(N(C)C)cc2)N2CCc3ccccc32)cc1C (stereo unspecified) | active: 7.08 µM | – |
| CCOC(=O)N1CCN(c2cc3[nH]c(=S)[nH]c3cc2F)CC1 | active: 44.7 µM | – |
| O=C(CNC(=O)C1CCCCC1)Nc1cc(Cl)cc(Cl)c1 | inactive | – |
| COC(=O)C1=C(C)NC(=O)/C1=C\c1cc(C)n(-c2ccccc2C)c1C | active: 44.7 µM | – |
| O=C1NC(c2ccccc2)=C(c2nc3ccccc3s2)C(c2ccc(O)cc2)N1 (stereo unspecified) | inconclusive: 50.1 µM [inhibitor, partial curve] | – |
| Cn1c(=O)c2c(nc(NCc3ccco3)n2C/C=C/c2ccccc2)n(C)c1=O | inconclusive: 44.7 µM [inhibitor, partial curve] | – |
| COc1cc(S(=O)(=O)NCc2ccncc2)c(OC)cc1C | inactive | – |
| CC(NC(=O)c1ccnc(C(C)(C)C)c1)c1ccccc1 (stereo unspecified) | inactive | – |
| CC1CCCCN1CCCNC(=O)c1[nH]c2ccccc2c1Sc1ccc(Cl)cc1 (stereo unspecified) | inactive | – |

| SMILES | Potency | activity change, negative = inhibition |
| --- | --- | --- |
| COC(=O)Nc1sc2c(c1C(=O)NCc1ccco1)CCC2 | active: 56.2 µM | – |
| COc1ccc(OC)c(NC(=S)Nc2ccccc2)c1 | inactive | – |
| O=C(c1ccco1)N(Cc1cccc([N+](=O)[O-])c1)c1ccc(Br)cc1 | inconclusive: 50.1 µM [inhibitor, partial curve] | – |
| Cc1cc(C)nc(-n2nc(C)c3c(=O)[nH]c(C(F)(F)F)nc32)n1 | active: 79.4 µM | – |
| CCOC(=O)C1CCCCN1C(=O)c1cc2ccc(OC)cc2c2cc(OC)c(OC)cc12 (stereo unspecified) | inconclusive: 56.2 µM [inhibitor, partial curve] | – |
| O=C(CSc1nnc(CNc2ccc(F)cc2)n1Cc1ccccc1)NCc1ccco1 | inconclusive: 39.8 µM [inhibitor, partial curve] | – |
| COCc1n[nH]c(=S)n1-c1ccccc1 | active: 39.8 µM | – |
| COc1ccc(S(=O)(=O)NC(C)CCc2ccccc2)cc1 (stereo unspecified) | inconclusive: 10 µM [inhibitor, full curve] | – |
| COc1ccc(C(C)(C)C)cc1NC(=O)Nc1ccc2c(c1)OCO2 | inconclusive: 25.1 µM [inhibitor, full curve] | – |
| COc1ccc(NC(=O)c2cccc(N3C(=O)c4ccc(C(=O)Nc5ccc(OC)c(O)c5)cc4C3=O)c2)cc1O | inconclusive: 8.91 µM [inhibitor, full curve, poor fit] | – |
| Cc1nn(C)cc1CN1CCCC(C(=O)c2ccc(-c3ccccc3)c(F)c2)C1 (stereo unspecified) | – | inconclusive: -37% [inhibitor] |
| CSc1ncccc1C(=O)NC1CCCCCCC1 | inactive | – |
| O=C(CNS(=O)(=O)c1ccccc1)OCC(=O)c1ccc([N+](=O)[O-])cc1 | inconclusive: 89.1 µM [inhibitor, single point] | – |
| CCOC(=O)c1[nH]c(C)c(/C(O)=C2\C(=O)C(=O)N(CCN(C)C)C2c2ccco2)c1C (stereo unspecified) | inconclusive: 39.8 µM [inhibitor, partial curve] | – |
| OC(CNCCc1ccc(Cl)cc1Cl)COc1ccccc1 (stereo unspecified) | inconclusive: 63.1 µM [inhibitor, single point] | – |
| CCc1cc(-c2n[nH]c(=S)n2CC)cs1 | active: 8.91 µM | – |
| c1ccc(CCNCCCOc2cccc3ccccc23)cc1 | active: 39.8 µM | – |
| CC(C)(C)N(Cc1ccccc1)C(=O)COC(=O)CSc1ccc([N+](=O)[O-])cc1 | inactive | – |
| CCOc1cc(C2C3=C(CCCC3=O)N(CCC(=O)O)C3=C2C(=O)CCC3)ccc1OS(=O)(=O)c1ccc(C)cc1 | inconclusive: 25.1 µM [inhibitor, partial curve] | – |
| CCOc1ccc(CCNC(=O)c2cccc(N3CCCC3=O)c2)cc1OCC | inconclusive: 35.5 µM [inhibitor, partial curve] | – |
| CC(C)(C)OC(=O)CNC(=O)c1[nH]cnc1C(=O)N[C@@H](CCCCN)C(=O)OC(C)(C)C | inconclusive: 79.4 µM [inhibitor, partial curve] | – |
| O=C1ON=C(c2ccccc2)/C1=C/c1ccc(OS(=O)(=O)c2ccccc2)cc1 | active: 79.4 µM | – |
| COc1ccccc1C(C)NC(=O)c1ccc(S(=O)(=O)NCc2ccco2)cc1 (stereo unspecified) | inconclusive: 35.5 µM [inhibitor, partial curve] | – |
| COCc1cc(C)nc(SCC(=O)c2ccc(O)c(O)c2)c1C#N | active: 22.4 µM | – |
| COc1ccc(CC(=O)Nc2ccc(OC(C)=O)cc2C(=O)O)cc1 | inactive | – |
| CCOC(=O)c1ccc(NC(=O)Cn2c(-c3nonc3N)nc3ccccc32)cc1 | inconclusive: 12.6 µM [inhibitor, full curve] | – |

| SMILES | Potency | activity change, negative = inhibition |
| --- | --- | --- |
| O=C(NC(=S)NC1CCCCC1)c1ccccc1[N+](=O)[O-] | inconclusive: 56.2 µM [inhibitor, partial curve] | – |
| Cc1nnc(NCc2ccccc2)c2ccccc12 | inconclusive: 79.4 µM [inhibitor, partial curve] | – |
| Cc1nc(SCC(=O)N2CCN(C(=O)c3cccs3)CC2)c2c(C)c(C)sc2n1 | inactive | – |
| Cc1ccc(NC(=O)[C@H](NC(=O)[C@@H]2Cc3ccccc3CN2)c2ccccc2)c(C)c1 | inactive | – |
| COc1ccc(Nc2nc3c(C)cccn3c(=O)c2C=NCc2ccccc2)cc1 | inconclusive: 11.2 µM [inhibitor, full curve] | – |
| COC(=O)c1cccc(Nc2c(-c3ccc(OC)cc3)nc3nc[nH]n23)c1 | inconclusive: 79.4 µM [inhibitor, partial curve] | – |
| COc1ccc(CCNC(=O)c2cc3sc(Cl)cc3n2C)cc1OC | inconclusive: 56.2 µM [inhibitor, partial curve] | – |
| O=C(/C=C/c1ccc(Cl)cc1)NC1CC2CCC1C2 (stereo unspecified) | inactive | – |
| CC1=NOC(=O)/C1=C\c1ccc(-c2ccc(Br)cc2)o1 | inconclusive: 20 µM [inhibitor, full curve] | – |
| CC(C(=O)NCc1cccnc1)c1ccc([N+](=O)[O-])cc1 (stereo unspecified) | inactive | – |
| C=CCOc1ccc(C=NNc2ccc(S(=O)(=O)Nc3ccccc3C(=O)O)cc2[N+](=O)[O-])cc1OC | active: 15.8 µM | – |
| COc1ccc(C(CC(=O)N2CCCC(C)C2)c2c(OC)cc(OC)c3ccc(=O)oc23)cc1 (stereo unspecified) | inactive | – |
| COc1ccc(-c2nc(C#N)c(N3CCCCCC3)o2)cc1 | inconclusive: 50.1 µM [inhibitor, partial curve] | – |
| CC(=O)Nc1ccc(S(=O)(=O)N2CCN(C(=O)Cc3ccccc3)CC2)cc1 | inconclusive: 22.4 µM [inhibitor, partial curve] | – |
| CC(C)N1CCN(Cc2cccc(-n3cccn3)c2)CC1CCO (stereo unspecified) | inactive | – |
| Cc1ccc2c(c1)NC(=O)C(CC(=O)NCCCN1CCCC1=O)O2 (stereo unspecified) | inconclusive: 20 µM [inhibitor, full curve, poor fit] | – |
| COc1ccc(OC)c(Nc2nc(-c3sc(NC(=O)CC(C)C)nc3C)cs2)c1 | active: 44.7 µM | – |
| COc1cc(/C=C2\SC(=S)N(Nc3ccccc3)C2=O)ccc1O | active: 44.7 µM | – |
| CN(Cc1ccccc1)Cc1nc2c([nH]1)c(=O)[nH]c(=O)n2C | active: 1 µM | – |
| CN(C)c1ccc(/C=C/c2ccc3ccccc3n2)cc1 | inconclusive: 50.1 µM [inhibitor, partial curve, poor fit] | – |
| CCOC(=O)C1CCCN(S(=O)(=O)c2ccc3c(c2)CCN3C(=O)CC)C1 (stereo unspecified) | inactive | – |
| O=C1c2cccc3cccc(c23)C(=O)N1CC1CCN(CC(O)COc2ccc3ccccc3c2)CC1 (stereo unspecified) | active: 12.6 µM | – |
| Nc1nc(=O)c2ccccc2s1 | inconclusive: 79.4 µM [inhibitor, single point] | – |
| CCOC(=O)c1c(C)[nH]c(CCC(=O)Nc2c(Cl)cc(OC)cc2OC)c1C | inconclusive: 79.4 µM [inhibitor, partial curve] | – |
